Data on five compounds can be found in the supplement of paper PMC4604168 (melanoma cell lines).

Some of the results follow. Most values come without repeats; read them as rough.
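Note: cells treated in 1,536-well plates, then fixed and DAPI-stained, with nuclei counted from automated high-throughput microscope images.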

The test system of the experiment is SkMel2. The experiment in a line: cell count relative to DMSO control; melanoma cells; higher = more viable cells. The conditions noted are these: library dose: standard library concentration; 72 h.
Take `Cc1cc(Nc2cc(N3CCN(C)CC3)nc(Sc3ccc(NC(=O)C4CC4)cc3)n2)n[nH]1` [Tozasertib] + O=C(CCCCCCC(=O)Nc1ccccc1)NO [vorinostat] (first compound 0.03 µM, partner dose 0.4 µM): the cell count came to 51.9%.

`Cc1cc(Nc2cc(N3CCN(C)CC3)nc(Sc3ccc(NC(=O)C4CC4)cc3)n2)n[nH]1` [Tozasertib] + Nc1nc(F)nc2c1ncn2[C@@H]1O[C@H](CO)[C@@H](O)[C@@H]1O [fludarabine] (first compound 0.03 µM, partner dose 1 µM) came in with a cell count of 2.17%.

As to `N#CC[C@H](C1CCCC1)n1cc(-c2ncnc3[nH]ccc23)cn1` [ruxolitinib] + C=CCNC1=C2C[C@@H](C)C[C@H](OC)[C@H](O)[C@@H](C)/C=C(\C)[C@H](OC(N)=O)[C@@H](OC)/C=C\C=C(/C)C(=O)NC(=CC1=O)C2=O [Tanespimycin] (first compound 5 µM, partner dose 0.01 µM), the cell count was 92.5%.

`N#CC[C@H](C1CCCC1)n1cc(-c2ncnc3[nH]ccc23)cn1` [ruxolitinib] + CO[C@@H]1[C@H](N(C)C(=O)c2ccccc2)C[C@H]2O[C@]1(C)n1c3ccccc3c3c4c(c5c6ccccc6n2c5c31)C(=O)NC4 [Midostaurin] (first compound 5 µM, partner dose 0.4 µM): the cell count stood at 45.3%.

In turn, `Cc1cc(Nc2cc(N3CCN(C)CC3)nc(Sc3ccc(NC(=O)C4CC4)cc3)n2)n[nH]1` [Tozasertib] + COc1cc2c(Oc3ccc4[nH]c(C)cc4c3F)ncnc2cc1OCCCN1CCCC1 [cediranib] (first compound 0.03 µM, partner dose 2 µM) came in with a cell count of 82.4%.
